Among all 310,000 compounds or so, about 2,200 (0.71%) showed an effect of 50% or more. Effects have a minus sign here. This is one part of the list.
target: human ether-à-go-go-related gene (hERG) potassium channel (human, UniProt Q12809); experiment: primary screen, population patch clamp on CHO cells stably expressing hERG
Sequence (Q12809 whole entry, looked up): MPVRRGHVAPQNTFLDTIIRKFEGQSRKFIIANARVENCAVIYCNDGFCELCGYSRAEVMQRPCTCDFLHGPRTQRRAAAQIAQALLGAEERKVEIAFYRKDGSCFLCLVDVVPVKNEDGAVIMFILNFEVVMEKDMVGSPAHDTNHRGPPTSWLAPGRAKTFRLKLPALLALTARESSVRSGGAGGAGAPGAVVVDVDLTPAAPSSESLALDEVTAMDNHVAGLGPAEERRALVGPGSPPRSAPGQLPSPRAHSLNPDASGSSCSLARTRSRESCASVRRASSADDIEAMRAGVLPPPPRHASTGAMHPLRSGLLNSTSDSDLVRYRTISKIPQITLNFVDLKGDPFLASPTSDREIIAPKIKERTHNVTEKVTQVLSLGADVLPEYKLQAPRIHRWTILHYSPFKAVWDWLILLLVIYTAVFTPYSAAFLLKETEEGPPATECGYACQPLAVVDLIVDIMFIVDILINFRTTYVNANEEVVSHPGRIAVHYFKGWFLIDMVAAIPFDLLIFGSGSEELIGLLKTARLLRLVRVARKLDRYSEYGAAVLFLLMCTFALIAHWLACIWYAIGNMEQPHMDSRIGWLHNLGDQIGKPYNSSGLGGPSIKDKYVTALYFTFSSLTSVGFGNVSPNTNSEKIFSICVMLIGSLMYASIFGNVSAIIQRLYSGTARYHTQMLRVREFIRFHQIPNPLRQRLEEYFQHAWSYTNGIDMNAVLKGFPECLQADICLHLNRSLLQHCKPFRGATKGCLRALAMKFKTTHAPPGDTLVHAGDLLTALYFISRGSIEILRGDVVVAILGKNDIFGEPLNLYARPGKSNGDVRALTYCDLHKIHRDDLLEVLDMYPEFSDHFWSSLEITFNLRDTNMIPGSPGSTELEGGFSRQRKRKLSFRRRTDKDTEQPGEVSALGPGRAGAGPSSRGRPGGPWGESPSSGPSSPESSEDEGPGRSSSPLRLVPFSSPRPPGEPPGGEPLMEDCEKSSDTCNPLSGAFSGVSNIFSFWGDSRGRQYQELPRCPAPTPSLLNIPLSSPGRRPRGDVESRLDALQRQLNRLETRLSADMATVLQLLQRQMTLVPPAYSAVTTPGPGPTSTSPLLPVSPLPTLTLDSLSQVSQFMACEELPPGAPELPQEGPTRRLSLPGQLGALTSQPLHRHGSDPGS

Row | SMILES | hERG current change (%, negative = inhibition) at 1uM
1 | O=C(NCc1ccco1)c1cc2sccc2n1Cc1ccccc1 | -6.25%
2 | CCOC(=O)CSc1nnc(-c2cccc(Br)c2)o1 | 12.9%
3 | COc1ccc(OCCNc2cc(N3CCCCC3)ccc2[N+](=O)[O-])cc1 | 8.72%
4 | Cc1nnc(SC(C(=O)Nc2ccc(Cl)c([N+](=O)[O-])c2)c2ccccc2)[nH]c1=O (centres unmarked) | 14.6%
5 | COc1cccc(OC)c1C(=O)Nc1ccc(S(=O)(=O)Nc2ncccn2)cc1 | 4.77%
6 | Cc1ccc2cc(CCNC(=O)C(C)(C)C)c(=O)[nH]c2c1 | 11.6%
7 | c1cncc(-c2nnc(-c3ccco3)o2)c1 | 9.24%
8 | COc1ccccc1C(=O)NCC(=O)Nc1cccnc1 | 15.6%
9 | Cc1cc(Cl)c(O)c(-n2nc3ccccc3n2)c1 | 1.03%
10 | O=[N+]([O-])c1cccc(CSc2ncnc3ccccc23)c1 | 14.6%
11 | CCOC(=O)C1CCN(C(=O)C(CCSC)NC(=O)COc2ccccc2)CC1 (centres unmarked) | -11%
12 | Cc1ccc(Cn2nnc3c(=O)n(CC(=O)c4ccccc4)cnc32)cc1 | 6.59%
13 | COCCCNC(=O)c1c(NC(=O)c2ccccc2Cl)n(Cc2ccccc2)c2nc3ccccc3nc12 | 10.5%
14 | Cc1ccc(S(=O)(=O)NC2=NCN(C3CCCCC3)CN2)cc1 | 12.8%
15 | Cc1ccc(CNC(=O)c2cc(-c3cc(C)cc(C)c3O)n[nH]2)cc1 | 1.75%
16 | O=C(NC1CCOc2ccccc21)c1ccc(Cl)nc1 (centres unmarked) | 11.9%
17 | COc1ccc(C(=O)Nc2cccc(NC(=O)c3ccc(OC)c(OC)c3)n2)cc1OC | 11.1%
18 | Cc1nc(-c2ccccc2)nc2n[nH]c(N)c12 | 13.3%
19 | COc1cc(C(=O)Nn2cnnc2)ccc1OC(F)F | 14.8%

Row | SMILES | hERG current change (%, negative = inhibition) at 1uM
20 | Cc1ccc(C(=O)N/C(=C/c2ccccc2)C(=O)NC(Cc2ccccc2)C(=O)O)cc1 (centres unmarked) | 13.9%
21 | COC(=O)c1ccc(CNC(=O)c2ccc(COc3ccccc3)cc2)cc1 | 8.6%
22 | Cc1c(C(=O)Nc2nonc2-c2ccc(F)cc2)oc2ccc(F)cc12 | 12.1%
23 | COc1ccc(-c2c(S(=O)(=O)c3ccccc3)cnn2-c2ccccc2)cc1 | 4.42%
24 | Cc1ccccc1NC(=O)c1c(C)[nH]c(=S)c(C#N)c1-c1ccc(Cl)cc1 | 14.7%
25 | CCOC(=O)c1csc(Nc2nc3ccc(F)cc3s2)n1 | 1.25%
26 | CSc1ccc(CN(C)CC(=O)NC(C)c2ccccc2)cc1 (centres unmarked) | -15.4%
27 | COC(=O)c1ccccc1NC(=O)CN(CCc1ccccc1)S(C)(=O)=O | -3.14%
28 | CN1CC(C(=O)c2ccc([N+](=O)[O-])cc2)C(c2ccc(Cl)cc2)C1 (centres unmarked) | -77.1%
29 | Nc1nc2nonc2nc1N | 6.3%
30 | Cc1cc(NC(=O)CSc2nc3ccccc3c(=O)n2Cc2ccc(F)cc2)no1 | 11.7%
31 | COc1ccc(/C=N/NC(=O)CN2CCN(Cc3ccccc3)CC2)cc1Br | -33.9%
32 | COc1ccc2cc(S(=O)(=O)N3CCCC(C)C3)ccc2c1 (centres unmarked) | 13.2%
33 | CC(C)C1Nc2c(C(=O)[O-])cccc2C(Nc2ccccc2C(=O)[O-])C1(C)C.[K+] (centres unmarked) | 6.86%
34 | CCc1nnc(NC(=O)c2nn(-c3ccccc3)nc2C)s1 | 9.69%
35 | Cc1nc2cccc(C(=O)NCc3ccccc3)c2o1 | 11.2%
36 | CCOC(=O)C(NC(C)=O)(NS(=O)(=O)c1ccccc1)C(F)(F)F (centres unmarked) | 14.7%
37 | O=C(COc1ncnc2ccccc12)N1CCN(S(=O)(=O)c2ccccc2)CC1 | 13.1%
38 | CS(=O)(=O)c1ccc(Cl)c(NC(=O)CCN2C(=O)C3CC=CCC3C2=O)c1 (centres unmarked) | 12.5%

Row | SMILES | hERG current change (%, negative = inhibition) at 1uM
39 | Cc1ccc(S(=O)(=O)CCc2nc3ccccc3s2)cc1C | 4.25%
40 | C/C(=N/N=C/c1ccccc1O)c1ccccc1O | 19.2%
41 | Cc1c(NC(=S)NC(=O)c2ccc(Cl)cc2)c(=O)n(-c2ccccc2)n1C | 3.81%
42 | CCC(=O)Nc1cccc(NC(=O)c2ccc3c(c2)OCCO3)c1 | 8.27%
43 | CN(C(=O)CSc1nc(-c2ccccc2)c(-c2ccccc2)o1)C1CCS(=O)(=O)C1 (centres unmarked) | 3.1%
44 | O=C(Cn1nc(-c2ccccc2F)ccc1=O)NCc1ccc2c(c1)OCO2 | -4.51%
45 | CCOC(=O)C1=C(O)/C(=C/c2cc(OC)c(OC)c(OC)c2)N=C1C | 12.2%
46 | CCN(CC)S(=O)(=O)c1cccc(NC(=O)COC(=O)/C=C/c2ccco2)c1 | -2.5%
47 | O=C1CN(c2nc(-c3ccccc3)c3ccccc3n2)c2ccccc2N1 | 15.6%
48 | CCc1ccc(N2CC(C(=O)Nc3ccc(F)cc3)CC2=O)cc1 (centres unmarked) | 19.6%
49 | CC(C)/C=C/C(=O)N1CCC(N2CCC(C(=O)NCc3ccccn3)CC2)CC1 | 13.1%
50 | N#CCCN(C(=O)COC(=O)CCC(=O)c1ccc(F)cc1)c1ccccc1 | 1.38%
51 | COc1ccc(Cc2nnc(N/N=C/c3ccc(N(C)C)cc3)[nH]c2=O)cc1OC | 11.5%
52 | O=C(/C=C/c1ccc(Cl)cc1)NC(=S)Nc1ccc(NC(=O)c2ccco2)cc1 | 9.58%
53 | Cc1ccc(S(=O)(=O)N2CC(C)N(C(=O)N3CCOCC3)C2C)cc1 (centres unmarked) | 28.2%
54 | O=C(N/N=C/c1c[nH]c2c1ccc1ccccc12)c1ccc([N+](=O)[O-])cc1 | 7.89%
55 | O=C(O)c1ccc(CNCc2cccc(Oc3ccccc3)c2)cc1 | 10.1%
56 | Cc1c(C(=O)N2CCCC2)sc(NC(=O)c2ccco2)c1C#N | 11%
